Laboratory results as given in PubChem BioAssay AID1347165 (National Center for Advancing Translational Sciences (NCATS), 2019).
Hit rate of the full screen: of about 220,000 compounds, about 5,700 (2.6%) were called active. Inconclusive means that the source gave no clear call. Such entries were picked first, then a sample of the others. Calls follow the shape of the dose curve; as a rule, active = well fitted inhibition curve with a large enough effect; inconclusive = small, poorly fitted or top-dose-only effect; inactive = no such curve, though single readings can be large or run the other way. Potencies of inconclusive entries are doubtful fits and often do not repeat.

biological target: Lysine-specific demethylase 5B (Homo sapiens) (UniProt Q9UGL1); experiment: Primary screen for KDM5B Histone Demethylases FDH-coupled qHTS; conditions: FDH-coupled NADH fluorescence (FDH is formaldehyde dehydrogenase); activity change, negative = inhibition: at 57.7 µM (top of the series) unless noted; also: nearly all actives have a fitted effect of over 70% in size; as to activity change, negative = inhibition: 0% is about no effect
Sequence of UniProt Q9UGL1 (Q9UGL1 whole entry, looked up): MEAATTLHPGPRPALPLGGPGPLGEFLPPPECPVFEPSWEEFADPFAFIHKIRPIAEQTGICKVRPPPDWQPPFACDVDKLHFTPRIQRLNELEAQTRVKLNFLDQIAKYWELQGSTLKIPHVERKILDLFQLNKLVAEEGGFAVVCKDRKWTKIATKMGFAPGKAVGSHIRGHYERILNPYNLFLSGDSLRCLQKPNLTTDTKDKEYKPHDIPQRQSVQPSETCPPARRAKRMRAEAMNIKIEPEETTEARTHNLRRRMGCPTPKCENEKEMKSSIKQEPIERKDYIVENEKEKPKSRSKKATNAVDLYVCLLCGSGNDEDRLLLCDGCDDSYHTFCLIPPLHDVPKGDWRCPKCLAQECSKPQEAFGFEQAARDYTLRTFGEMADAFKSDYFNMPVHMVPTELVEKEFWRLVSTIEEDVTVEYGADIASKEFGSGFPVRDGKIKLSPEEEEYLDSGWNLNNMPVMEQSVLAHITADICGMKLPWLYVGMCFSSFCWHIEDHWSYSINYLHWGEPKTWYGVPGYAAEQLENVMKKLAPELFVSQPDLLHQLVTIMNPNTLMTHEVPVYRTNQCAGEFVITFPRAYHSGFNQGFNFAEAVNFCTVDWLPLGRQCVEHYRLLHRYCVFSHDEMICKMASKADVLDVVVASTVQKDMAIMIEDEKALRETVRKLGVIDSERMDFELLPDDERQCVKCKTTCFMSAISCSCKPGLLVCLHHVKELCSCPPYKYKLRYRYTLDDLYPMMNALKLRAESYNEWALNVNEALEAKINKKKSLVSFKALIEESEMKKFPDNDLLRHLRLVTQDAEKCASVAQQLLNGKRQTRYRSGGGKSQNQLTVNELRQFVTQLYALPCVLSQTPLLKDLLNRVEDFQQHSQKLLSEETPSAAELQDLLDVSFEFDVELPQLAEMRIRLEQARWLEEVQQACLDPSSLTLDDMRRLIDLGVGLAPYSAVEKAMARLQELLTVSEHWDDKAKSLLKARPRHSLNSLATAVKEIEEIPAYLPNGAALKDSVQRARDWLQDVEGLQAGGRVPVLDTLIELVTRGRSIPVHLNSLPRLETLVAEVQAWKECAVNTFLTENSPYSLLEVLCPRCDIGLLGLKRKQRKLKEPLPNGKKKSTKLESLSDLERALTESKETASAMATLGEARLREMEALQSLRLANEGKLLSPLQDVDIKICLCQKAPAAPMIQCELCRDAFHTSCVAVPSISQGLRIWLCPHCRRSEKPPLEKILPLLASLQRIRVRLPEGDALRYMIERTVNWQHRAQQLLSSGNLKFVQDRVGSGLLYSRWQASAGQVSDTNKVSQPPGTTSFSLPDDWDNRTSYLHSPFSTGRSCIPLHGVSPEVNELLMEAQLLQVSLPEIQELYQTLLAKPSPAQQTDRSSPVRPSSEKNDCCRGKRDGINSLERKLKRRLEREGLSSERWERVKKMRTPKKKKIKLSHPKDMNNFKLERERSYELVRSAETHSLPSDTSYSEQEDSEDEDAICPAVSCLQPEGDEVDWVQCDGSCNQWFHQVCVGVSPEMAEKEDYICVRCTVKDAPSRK
Outline: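 Compound dilutions met 200 nM (final) KDM5BΔAP for 10 min at room temperature before substrate addition. The substrate mix held 12.5 µM H3K4me3 with cofactors 25 µM α-ketoglutarate and 50 µM Fe²⁺. NADH signal gain over 30 min defined activity.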
Potency is read from the fitted curve at half-maximal effect; tags tell the direction and shape of the fitted curve.

| SMILES | Potency | activity change, negative = inhibition |
| --- | --- | --- |
| COc1cc(C2C(C#N)=C(N)N(c3c(F)cccc3F)C3=C2C(=O)CC(C)(C)C3)ccc1O (stereo unspecified) | inconclusive: 28.2 µM [inhibitor, partial curve, poor fit] |  |
| CS(=O)(=O)Nc1cc(-c2noc([C@@H]3CCCN3Cc3ccccc3)n2)ccn1 | inconclusive: 28.2 µM [inhibitor, single point] |  |
| CC(C)c1ccc(OCC(=O)Nc2c(Cl)ccc3nsnc23)cc1 | inactive |  |
| Clc1ccc(-c2cc3ccccn3c2)cc1 | inconclusive: 22.4 µM [inhibitor, partial curve, poor fit] |  |
| N#Cc1ccc(CN2CC[C@H](c3nnc(-c4ccccc4F)o3)C2)cc1 | inactive |  |
| Cc1cccc2nc(C(=O)N3CCC4(CCNCC4)CC3)cn12 | inconclusive: 14.1 µM [inhibitor, partial curve] |  |
| CN(C)c1cccc(-c2ncc3c(n2)OCCN(Cc2ccc(F)cc2F)C3=O)c1 | inconclusive: 28.2 µM [inhibitor, partial curve, poor fit] |  |
| O=C(CN1CCN(CC(=O)N2CCCCCC2)CC1)NCCc1c[nH]c2ccccc12 | inactive |  |
| Cc1ccc(NC(=O)N2CCC(CCNC(=O)c3ccc(F)cc3)CC2)cc1F | inactive |  |
| Cc1ccc(S(=O)(=O)NCC2(c3ccccc3)CC2)c(Cl)c1 | inactive |  |
| O=C(CSc1nc(-c2ccccc2F)nc2cc(=O)[nH]n12)N1CCCc2ccccc21 | inactive |  |
| CNC(=O)N1C[C@@H](CN(C)C)[C@H](NC(=O)c2cccnc2)C1 | inactive |  |
| Cc1ccc(S(=O)(=O)N2CCN(C(=O)COC(=O)c3cccc4ccccc34)CC2)c(C)c1 | inactive |  |
| COc1ccc(-c2nc3c(s2)CN(C(C(=O)O)c2c[nH]c4c(OC)cccc24)CC3)cc1OC (stereo unspecified) | inconclusive: 1.78 µM [inhibitor, partial curve, poor fit] |  |
| COc1cc2c(cc1OC)-c1c(c(C(=O)N3CCC(C(N)=O)CC3)nn1-c1ccccc1F)C2 | inactive |  |
| CCc1nc2nccc(-c3ccc(Br)s3)n2n1 | inactive |  |
| CCNC(=O)C(C)NC(=O)c1cc2ccc(OC)cc2nc1C (stereo unspecified) | inconclusive: 28.2 µM [inhibitor, single point] |  |
| COc1cccc(CNC(=O)CSc2nc3ccccc3nc2Cc2ccc(C)cc2)c1OC |  | inconclusive: -31.5% [inhibitor] |
| CCOC(=O)CNC(=O)c1cc2c(=O)n3cccc(C)c3nc2s1 | inconclusive: 28.2 µM [inhibitor, partial curve, poor fit] |  |
| CN(C)c1cc(Cl)c2nonc2c1N | inconclusive: 14.1 µM [inhibitor, partial curve, poor fit] |  |
| O=C1COc2ccc(-c3ccc4c(c3)OCO4)nc2CN1Cc1ccc(F)cc1 | active: 35.5 µM |  |
| Clc1cccc(CSc2cccc3cccnc23)c1 | inconclusive: 25.1 µM [inhibitor, partial curve, poor fit] |  |

| SMILES | Potency | activity change, negative = inhibition |
| --- | --- | --- |
| CC(C)c1cccc(NC(=O)c2ccc3c(c2)N(C)C2CCCCN2C3=O)c1 (stereo unspecified) | inconclusive: 31.6 µM [inhibitor, partial curve, poor fit] |  |
| Cc1ccn2cc(-c3ccc(O)c(O)c3)nc2c1 | inconclusive: 28.2 µM [inhibitor, partial curve, poor fit] |  |
| O=C(CCc1cc2n(n1)CCCNC2)Nc1ccccc1CCc1ccccn1 | inactive |  |
| CC(C)n1nc(C(=O)NCc2cccs2)c2ccccc2c1=O | inactive |  |
| Cc1cc2oc(=O)cc(Cn3nc(C)c(C)c(C#N)c3=O)c2cc1C | inactive |  |
| CC(C)c1csc(CN2CCN(c3ncccc3C#N)CC2)n1 | inconclusive: 22.4 µM [inhibitor, partial curve, poor fit] |  |
| COc1ccc(Nc2ncc(C(=O)Nc3cc(Cl)c(OC)cc3OC)c3ccccc23)cc1 | inconclusive: 15.8 µM [inhibitor, partial curve, poor fit] |  |
| CCN(C(C)C(=O)Nc1ccc(C)cc1)S(=O)(=O)c1cccc2cc(C)cnc12 (stereo unspecified) | inactive |  |
| O=C(CCS(=O)(=O)c1nc(-c2ccc3c(c2)OCO3)cc(C(F)(F)F)n1)Nc1ccc(F)c(Cl)c1 | inconclusive: 35.5 µM [inhibitor, partial curve, poor fit] |  |
| COC(=O)CNC(=O)c1cc(-c2ccncc2)nc2ccc(C)cc12 | inconclusive: 28.2 µM [inhibitor, partial curve, poor fit] |  |
| COc1cccc(CN2CCCCCCNC(=O)[C@@H]3C[C@@H](C(=O)N4CCc5ccccc5C4)C[C@@H]32)c1 | inconclusive: 20 µM [inhibitor, partial curve, poor fit] |  |
| Cc1noc(Cn2c(=O)c3ccccc3n(CC(=O)Nc3ccc(Cl)cc3)c2=O)n1 | inactive |  |
| CC(=O)N1CCCC2(C1)CN(C)c1ccc(C(=O)NC3CC3)cc12 (stereo unspecified) | active: 25.1 µM |  |
| CC(C)CC(=O)N1CCC(N2CCN(C)CC2)CC1 | inconclusive: 3.55 µM [inhibitor, full curve, poor fit] |  |
| Cc1ccc2cccc(NC(=O)C(C)Oc3ccc(C)c(C)c3)c2n1 (stereo unspecified) | inconclusive: 31.6 µM [inhibitor, single point] |  |
| CC(C(=O)Nc1ccc(F)cc1)N1CCN(C(=O)c2cccs2)CC1 (stereo unspecified) | inactive |  |
| COC(=O)C1=CN(Cc2cccs2)C=C(C(=O)OC)C1c1cccc(OC)c1 | inconclusive: 25.1 µM [inhibitor, partial curve, poor fit] |  |
| Nc1ccccc1-n1cccc1 | inconclusive: 22.4 µM [inhibitor, partial curve, poor fit] |  |
| CNC(=O)CCn1ncc2cc(OC3CCc4cccc(-c5ccc(F)cc5)c43)ccc21 (stereo unspecified) | inconclusive: 44.7 µM [inhibitor, single point] |  |
| N#Cc1cnc2cc(-c3ccccc3)nn2c1N | inconclusive: 35.5 µM [inhibitor, partial curve, poor fit] |  |
| CC(=O)Nc1ccc(S(=O)(=O)NC2(C(F)(F)F)C(=O)Nc3c2c(=O)[nH]c(=O)n3-c2ccc(C)c(C)c2)cc1 (stereo unspecified) | inconclusive: 15.8 µM [inhibitor, partial curve, poor fit] |  |
| COc1cccc(-n2c(-c3ccco3)nc3c(cnn3-c3ccc(C)cc3)c2=O)c1 | inconclusive: 39.8 µM [inhibitor, single point] |  |

| SMILES | Potency | activity change, negative = inhibition |
| --- | --- | --- |
| CCN1c2ccccc2-c2nc(SCC(=O)Nc3c(C)cc(C)cc3C)ncc2S1(=O)=O | inconclusive: 5.01 µM [inhibitor, full curve, poor fit] |  |
| NC(=O)C1CCN(C(=O)Cc2cccc(C(F)(F)F)c2)CC1 | inactive |  |
| CN1CC2(CCN(C(=O)NC3CCCCC3)CC2)CC1C(=O)N1CCOCC1 (stereo unspecified) | inconclusive: 35.5 µM [inhibitor, partial curve, poor fit] |  |
| COc1ccc(C(=O)Nc2ccc3oc(-c4ccc(OC)cc4)nc3c2)cc1 | inconclusive: 8.91 µM [inhibitor, partial curve, poor fit] |  |
| Cc1ccc(Cl)cc1NC(=O)CSc1ncc(-c2ccc(F)cc2)o1 | inactive |  |
| CCOC(=O)c1ccc(NC(=O)C2CC(=O)N(c3ccc(C(C)C)cc3)C2)cc1 (stereo unspecified) | inconclusive: 22.4 µM [inhibitor, partial curve, poor fit] |  |
| Cc1nnc(-c2cc(-c3ccsc3)ccn2)n1Cc1ccncc1 | inconclusive: 28.2 µM [inhibitor, partial curve] |  |
| CCCC(=O)Nc1cc(-c2nc3cccnc3s2)ccc1C | inconclusive: 3.98 µM [inhibitor, full curve, poor fit] |  |
| CCN(CC)c1cc(CCC(=O)N2CCC(COC)CC2)ccn1 | active: 25.1 µM |  |
| COc1ccc(CN(C(=O)c2snc(C(N)=O)c2N)C(C(=O)NC2CCCC2)c2ccc(OC)c(OC)c2)cc1 (stereo unspecified) | inconclusive: 17.8 µM [inhibitor, partial curve, poor fit] |  |
| c1ccc(Oc2cc3c(cn2)NCCN(Cc2cnc[nH]2)C3)cc1 | inconclusive: 35.5 µM [inhibitor, single point] |  |
| CCC(C)Nc1nc(C)nc2c1oc1ccccc12 (stereo unspecified) | inconclusive: 17.8 µM [inhibitor, partial curve, poor fit] |  |
| CN(C)c1ccc(NC(=O)CSc2ccc(F)cc2)cc1 | inactive |  |
| CC(NC(=O)c1cccc(NC(=O)c2nsc3ccccc23)c1)c1ccccc1 (stereo unspecified) | inconclusive: 31.6 µM [inhibitor, partial curve, poor fit] |  |
| COc1ccc2c(c1)Cc1sc(NC(=O)c3cccc(F)c3)nc1-2 | inconclusive: 17.8 µM [inhibitor, partial curve, poor fit] |  |
| COc1ccc(-c2cc(C(=O)Nc3ccc4c(c3)OCO4)on2)cc1OC | inactive |  |
| N#C/C(=C\c1cccc(Cl)c1)C(=O)c1ccccc1 | inconclusive: 22.4 µM [inhibitor, partial curve, poor fit] |  |
| COc1ccc(OCC(O)CN2CCC(CN3C(=O)c4cccc5cccc(c45)C3=O)CC2)cc1 (stereo unspecified) | inconclusive: 25.1 µM [inhibitor, partial curve, poor fit] |  |
| Cc1ccc(C)c(N2CCN(C(=O)CCCCCn3c(=O)[nH]c4ccccc4c3=O)CC2)c1 | inconclusive: 10 µM [inhibitor, partial curve, poor fit] |  |
| COc1ccccc1CCC(=O)N1C[C@@H](C(N)=O)[C@H](c2nc(C)no2)C1 | inactive |  |
| CCOc1ccc(-c2cc(C(=O)N3CCN(c4cccc(C)c4)C(C)C3)c3ccccc3n2)cc1 (stereo unspecified) | inconclusive: 17.8 µM [inhibitor, single point] |  |
| Cc1ccc(-c2nnc(Nc3ccc(S(N)(=O)=O)cc3)c3ccccc23)cc1S(=O)(=O)N1CCOCC1 | inconclusive: 25.1 µM [inhibitor, single point] |  |
